Test results reported in the RNAGym collection of RNA variant scans (doi:10.7554/elife.90254).
The source gives no read counts; variants with many changes may rest on few reads.

B1: LINE1-full (parent)
chain: UACGUAGGUGGUUUUCCCCUGAUAGUGCUAAGGGGGCCUGGAAGUUUGGACUGGGCAGAGCUCAACACAGCGUGGCAAAGUGGCUGUGGCUAGACUGCCUCUCUGGAUUCCUCGUCACUCAGCAGGGCAUCUCUGAGAGAAAUGCC

Variants of: B1
Assay: self-cleavage, relative activity (ratio to wild type); higher = more cleavage; in vitro, sequencing; the parent is a self-cleaving ribozyme

| Variant | self-cleavage |
| --- | --- |
| UACGUAGGUGGUUAUCCCCUGAUAGUGCUAAGGGGGCCUGGAAGAUUGGACUGGGCAGAGCUCAACACAGCGUGGCGAGGUGGCUGUGGCUAGACUGCCUCUCUGGAUUCCUCGUCUCUCAGCAGGGCAUCUCUGAGAGAAAUGCC [U14A U45A A77G A79G A117U] | 1.53 |
| UACGUAGGUGGUUAUCCCCUGAUAGUGCUAAGGGGGCCUGGAAGUAUGGACUGGGCGGAGCUCAACAUAGCGUGGCAAAGUGGCUGAGGCUAGACUGCCUCUCUGGGUUCCUCGACACUCAGCAGGGCAUCUCUGAGAGAAAUGCC [U14A U46A A57G C68U U87A A107G U115A] | 0.03 |
| UACGUAGGUGGUUAUCCCCUGAUAGUGCUAAGGGGGCCUGGAAGUCUGGACUGGGCGGAGCUCAACACAGCGUGGCAAAGUGGCUGUGGCUAGACUGCCUCUCUGGAUUCCACGUCACUCAGCAGGGCGUCUCUGAGAGAAAUGCC [U14A U46C A57G U112A A129G] | 0 |
| UACGUAGGUGGUUAUCCCCUGAUAGUGCUAAGGGGGCCUGGAAGUCUGGACUGGGCAGGGCUCAACACAGCGUGGCAAAGUGGCUGUGGCUAGGCUACCUCUCUGGAUUCCUCGUCACUCAGCAGGGCAUCUCUGAGAGAAACGCC [U14A U46C A59G A94G G97A U143C] | 0.09 |
| UACGUAGGUGGUUAUCCCCUGAUAGUGCUAAGGGGGCCUGGAAGUCUGGACUGGGCAGAGCUCAACACAGCGUGGCAAAGUGGCUGUGGCUUGACUGCCUCUCUGGAUUCCUCGUCACUCAGCAGGGCAUCUCUGAGAGAAAUGCC [U14A U46C A92U] | 0.63 |
| UACGUAGGUGGUUAUCCCCUGAUAGUGCUAAGGGGGCCUGGAAGUCUGGACAGGGCAGAGCUCAACACAGCGUGGCAAAGUGGCUGAGGCUAGACUGCCUCUCUGGAUUCCUCGUCACUCAGCAGGGCAUCUCUGAGAGAAAUGCC [U14A U46C U52A U87A] | 0.09 |
| UACGUAGGUGGUUAUCCCCUGAUAGUGCUAAGGGGGCCUGGAAGUUAGGACUGGGCAGAGCUCAACACAGCGUGGCAAAGUGGCUGUGGCUAGACUGCCUCUCUGGAUUCCUCGUUACUCAGCAGGGCAUCUCUGAGAGAAAUGCC [U14A U47A C116U] | 0.97 |
| UACGUAGGUGGUUAUCCCCUGAUAGUGCUAAGGGGGCCUGGAAGUUAGGACUGGGCAGAGCUCAACACAGCGUGGCAAAGUGGCUGUGGCUAGACUGCCCCUCUGGAUUCCUCGUCACUCAGCAGGGCAUCUCUGAGAGAAAUGCC [U14A U47A U100C] | 1.24 |
| UACGUAGGUGGUUAUCCCCUGAUAGUGCUAAGGGGGCCUGGAAGUUCGAACUGGGCAGAGCUCAACACAGCGUGGCAAAGUGGCUGUGGCUAGACUGCCUCUCUGGAUUCCUCGUCACUCAGCAGGGCAUCUCUGAGAGAAAUGCC [U14A U47C G49A] | 0.3 |
| UACGUAGGUGGUUAUCCCCUGAUAGUGCUAAGGGGGCCUGGAAGUUCGGACUGAGCAGAGCUCAACACAGCGUAGCAAAGUGGCUGUGGCUAGACUGCCUCUCUGGAUUCCUCGUCACUCAGCAGGGCAUCUCUGAGAGAAAUGCC [U14A U47C G54A G74A] | 1.01 |
| UACGUAGGUGGUUAUCCCCUGAUAGUGCUAAGGGGGCCUGGAAGUUUGGACCGGGCAGAACUCAACACAGCGUGGCAAAGUGGCUGUGGCUAGACUGCCUCUCUGGAUUCCUCGUCACUCAGCAGGGCAUCUCUGAGAGAAAUGCC [U14A U52C G60A] | 0.06 |
| UACGUAGGUGGUUAUCCCCUGAUAGUGCUAAGGGGGCCUGGAAGUUUGGACUGGGCAGAGCCCAACACAGCGCGGCAAAGUGGCUGUGGCUAGACUGCCUCUCUGGAUUCCUCGUCACUCAGCAGGGCAUCUCUGAGAGAAAUGCC [U14A U62C U73C] | 0 |
| UACGUAGGUGGUUAUCCCCUGAUAGUGCUAAGGGGGCCUGGAAGUUUGGACUGGGCAGAGCCCAACACAGCGUGGCAAAGUGGCUGUGGCUAGACUGCCUCUCUGGAUUCCUCGUCACUCAGCAGGGCAUCCCUGAGAGAAAUGCC [U14A U62C U132C] | 0.08 |
| UACGUAGGUGGUUAUCCCCUGAUAGUGCUAAGGGGGCCUGGAAGUUUGGACUGGGCAGAGCUCAACACAGCGCGGCAAAGUGGCCGUGGCUAGACUGCCUCUCUGGAUUCCUCGUCACUCAGCAGGGCAUCUCUGAGAGAAAUGCC [U14A U73C U85C] | 0 |
| UACGUAGGUGGUUAUCCCCUGAUAGUGCUAAGGGGGCCUGGAAGUUUGGACUGGGCAGAGCUCAACACAGCGGGGCAAAGUGGCUGUGGCUAGACUGCCUCUCUGGAUUCCUCGUCCCUCAGCAGGGCAUCUCUGAGAGAAAUGCC [U14A U73G A117C] | 0.57 |
| UACGUAGGUGGUUAUCCCCUGAUAGUGCUAAGGGGGCCUGGAAGUUUGGACUGGGCAGAGCUCAACACAGCGUGGCAAAGUGGCUGUGGCCAGACUGCCUCUCUGGAUUCCUCGUCGCUCAGCAGGGCAUCUCUGAGAGAAAUGCC [U14A U91C A117G] | 0.66 |
| UACGUAGGUGGUUAUCCCCUGAUAGUGCUAAGGGGGCCUGGAAGUUUGGACUGGGCAGAGCUCAACACAGCGUGGCAAAGUGGCUGUGGCUAGACUGCCUCUCUGGACUCCUCGUCACUCUGCAGGGCAUUUCUGAGAGAAAUGCC [U14A U108C A121U C131U] | 0.64 |
| UACGUAGGUGGUUAUCCCCUGAUAGUGCUAAGGGGGCCUGGAAGUUUGGACUGGGCAGAGCUCAACACAGCGUGGCAAAGUGGCUGUGGCUAGACUGCCUCUCUGGAUUCCUCGUCACUCAGCAGGGCAUCUCCGAGGGGAAUGCC [U14A U134C A138G A140G] | 0 |
| UACGUAGGUGGUUCUCCCCUGGUAGUGCUAAGGGGGCCUGGAAGUUUGGACUGGGCAGUGCUCAACACAGCGUGGCAAAGCGGCUGUGGCUAGACUGCCUCUCUGGAUUCCUCGUCACUCAGCAGGGCAUCUCUGAGAGAAAUGCC [U14C A22G A59U U81C] | 0.89 |
| UACGUAGGUGGUUCUCCCCUGGCAGUGCUAAGGGGGCCUGGGAGUUUGGACUGGGCAGAGCUCAACACAGCGUGGCAAAGUGGCUGUGGCUAGACUGCCUCUCUGGAUUCCUCGUCACUCAGCAGGGCAUCUCUGAGAGAAAUGCC [U14C A22G U23C A42G] | 0.61 |

| Variant | self-cleavage |
| --- | --- |
| UACGUAGGUGGUUCUCCCCUGGUAGCGCUAAGGGGGCCUGGAAGUUUGGACUGGGCAGAGCUCAACACAGCGUGGCAAAGUGGCUGUGGCUAGACUGCUCCUCUGGACUCCUCGUCACUCAGCAGGGCAUCUCUGAGAGAAAUGCC [U14C A22G U26C C99U U100C U108C] | 0 |
| UACGUAGGUGGUUCUCCCCUGGUAGUGCUAAGGGGGCCAGGAGGUUUGGACUGGGCAGAGCUCAACACAGCGUGGCAAAGUGGCUGUGGCUAGACUGCCUCUCUGGAUUCCUCGUCGCUCAGCAGGGCAUCUCUGAGAGAAAUGCC [U14C A22G U39A A43G A117G] | 0 |
| UACGUAGGUGGUUCUCCCCUGGUAGUGCUAAGGGGGCCUGGAAGUCUGGACUGGGCAGAGCUCAACACAGCGUAGCAAAGUGGCUGUGGCUAGACUGCCUCUCUGGAUUCCUCGUCACUCAGCAGGGCAUCUCUGAGAGAAAUGCC [U14C A22G U46C G74A] | 0.88 |
| UACGUAGGUGGUUCUCCCCUGUUAGUGCUAAGGGGGCCUGGAAGUUUGGACUGGGCAGAGCUCAACGCAGCGUGGCAAAGUGGCUGAGGCUAGACUGCCUCUCUGGAUUCCUCGUCACUCAGCAGGGCAUCCCUGAGAGAAAUGCC [U14C A22U A67G U87A U132C] | 0.18 |
| UACGUAGGUGGUUCUCCCCUGUUAGUGCUAAGGGGGCCUGGAAGUUUGGACUGGGCAGAGCUCAACACAGCGUGGCAGAGUGGCUGUGGCUAGACUGCCUCUCUGGAUUCCUCGUCACUCAGCAGGGCAUCUCUGAGAGAAAUGCC [U14C A22U A78G] | 0.92 |
| UACGUAGGUGGUUCUCCCCUGUUAGUGCUAAGGGGGCCUGUAAGUUUGGACUGGGCAGAGCUCAACACAGCGUGGCAAAGUGGCUGUGGCUAGACUGCCUCUCUGGAUUCCUCGUCACUCAGCAGGGCAUCUCUGAGAGAAAUGCC [U14C A22U G41U] | 1.01 |
| UACGUAGGUGGUUCUCCCCUGAUGGUGCUAAGGGGGCCUGGAAGUUUGGACUGGGCAGAGCUCAUCACAGCGUGGCAAAGUGGCUGUGGCUAGACUGCCUCUCUGGAUUCCUCGUCACUCAGCAGGGCAUCUCUGAGAGAAAUGCC [U14C A24G A65U] | 0.36 |
| UACGUAGGUGGUUCUCCCCUGAUGGUGCUAAGGGGGCCCGUAAGUUUGGACUGGGCAGAGCUCAACACAGCGUGGCAAAGUGGCUGUGGCUAGACUGCCUCUCUGGAUUCCUCGUCACUCAGCAGGGCAUCUCUGAGAGAAAUGCC [U14C A24G U39C G41U] | 0.77 |
| UACGUAGGUGGUUCUCCCCUGAUUGUGCUAAGGGGGCCUGGAAGUUUGGACUGGGCAGAGCUCAACACAGCGUGGCGAAGUGGCUGUGGCUAGACUGCCACUCUGGAUUCCUCGUCACUCAGCAGGGCAUCUCUGAGAGAAAUGCC [U14C A24U A77G U100A] | 1.49 |
| UACGUAGGUGGUUCUCCCCUGAUUGUGCUAAGGGGGCCUGGAAGUUUGGACUGGGCAGAGCUCAACACAGCGUGGCAAAGUGGCUGUGGCUAGACUGCCUCUCUGGAUUCCUCGUCACUCAGCAGGGCGUCCCUGAGAGAAAUGCC [U14C A24U A129G U132C] | 1.15 |
| UACGUAGGUGGUUCUCCCCUGAUUGUGCUAAGGGGGCCUGGAAGUUUGGACUGGGCAGAGCUCAACACAGCGUGGCAAAGAGGCCGUGGCUAGACUGCCUCUCUGGAUUCCUCCUCACUCAGCAGGGCAUCUCUGAGAGAAAUGCC [U14C A24U U81A U85C G114C] | 0.27 |
| UACGUAGGUGGUUCUCCCCUGAUAGUGCUGAGGGGGCCUGGAUGUUUGGACUGGGCAGAGCUCAACACAGCGUGGCAAAGUGGCUGUGGCUAGACUGCCUCUCUGGAUUCCUCGUCACUCAGCAGGGCAUCUCUGAGAGAAAUGCC [U14C A30G A43U] | 1 |
| UACGUAGGUGGUUCUCCCCUGAUAGUGCUGAGGGGGCCUGGAAGUUUGGAGUGGGCAGAGCUCAACACAGCGUGGCAAAGUGGCUGUGGCUAGACUGCCCCUCUGGAUUCCUCGUCACUCAGCAGGGCAUCUCUGAGAGAAAUGCC [U14C A30G C51G U100C] | 0.9 |
| UACGUAGGUGGUUCUCCCCUGAUAGUGCUGAGGGGGCCUGGAAGUUUGGACUGGGCAGAGCCCAACACAGCGUGGCAAAGUGGCUGUGGCUAGACUGCCUCUCUGGAUUCCUCGUCACUCAGCAGGGCAUCUCUGAGAGAAAUGCC [U14C A30G U62C] | 0 |
| UACGUAGGUGGUUCUCCCCUGAUAGUGCUACGGGGGCCUGGAAGUUUGGACUGGGCAGAGCUCAACACAGCGUGGCAAAGUGGCUGUGGCUAGACUGCCUCUCUGGAUUCCUAGUCACUCAGCAGGGCAUCUCUGAGAGAGAUGCC [U14C A31C C113A A141G] | 0.55 |
| UACGUAGGUGGUUCUCCCCUGAUAGUGCUAGGGGGGCCUGGAAGUUUGGACUGGGCAGAGCUCAACACAGCGUGGCAAAGUGGCUGUGGCUAGACUGCCUCUCUGGAUUCCUCGUCACUCAGCAGGGCAUCUCUGCGAGAAAUGCC [U14C A31G A136C] | 1.45 |
| UACGUAGGUGGUUCUCCCCUGAUAGUGCUAGGGGGGCCUGGAAGUUUGGACUGGGCAGAGCUCAACACAGCGUGGCAAAGUGGCUGUGGCUAGACUGCCUCUCUGGAUUCCUCGUCACACAGCAGGGCAUCUCUGAGAGAAAUGCC [U14C A31G U119A] | 1.23 |
| UACGUAGGUGGUUCUCCCCUGAUAGUGCUAUGGGGGCCUGGGAGUUUGGACUGGGCAGAGCUCAACACAGCGUGGCAAAGUGGCUGUGGCUAGACUGCCUCUCUGGAUUCCUCGUCACUCAGCAGGGCAUCUCUGAGAGAAAUGCC [U14C A31U A42G] | 1.1 |
| UACGUAGGUGGUUCUCCCCUGAUAGUGCUAUGGGGGCCUGGAAGUUUGGUCUGGGCAGAGCUCAACACAGCGUGGCAAAGUAGCUAUGGCUAGACUGCCACUCUGGAUUCCUCGUCACUCAGCCGGGCAUCUCUGAGAGGAAUGCC [U14C A31U A50U G82A G86A U100A A124C A140G] | 0.05 |
